Measured values published in PubChem BioAssay (NCI).
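Method: 48-hour compound exposure of cells in 96-well plates, five concentrations, linear interpolation of endpoints. Here, GI50 denotes the concentration required for 50% inhibition of growth. TGI: total growth inhibition.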

Test system: NCI-H322M lung
Assay: growth of human tumour cells (NCI), 48 h

`O=C(NNc1nc2cc(F)cc(F)c2n2cccc12)c1ncccn1` was tested, and the GI50 was 312 nM and the TGI was greater than 20100 nM.
